In PubChem BioAssay AID485364 (National Center for Advancing Translational Sciences (NCATS), 2010):
Among all 360,000 compounds or so, about 11,000 (3.1%) were called active. The shares of active, inactive and inconclusive entries below differ from those in the screen. Calls come from the whole dose curve; as a rule, active = well fitted inhibition curve with a large enough effect; inconclusive = small, poorly fitted or top-dose-only effect; inactive = no such curve, though single readings can be large or run the other way. Potencies of inconclusive entries are left out as doubtful fits.

biological target: Schistosoma mansoni thioredoxin glutathione reductase (TGR) (UniProt Q962Y6); assay: qHTS Assay for the Inhibitors of Schistosoma Mansoni Peroxiredoxins; details: purified TGR, DTNB reduction, TNB absorbance 405 nm; activity change, negative = inhibition: at 114 µM (top of the series) unless noted; note: nearly all actives have a fitted effect of over 60% in size
Method in brief: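 First, TGR (20 nM dispensed) and NADPH were mixed with compound. Second, a 15 min room-temperature incubation followed. Third, further NADPH and then DTNB were added to start the reaction. Finally, TNB absorbance was monitored kinetically.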
% is set by controls: 0 for no effect and ±100 for the full control effect; potency is the fitted concentration of half-maximal effect; tags give direction and shape of the fitted curve.

| SMILES | Potency | activity change, negative = inhibition |
| --- | --- | --- |
| O=[N+]([O-])c1ccc(N2CCN(Cc3ccc([N+](=O)[O-])o3)CC2)cc1 | inconclusive [inhibitor, partial curve] | – |
| COc1cc(-c2nnc(SCc3cc(=O)oc4cc(O)c(O)cc34)o2)cc(OC)c1OC | – | inactive: -9.46% |
| Cc1ccc(CSc2nc3ccccc3c(=O)n2Cc2ccco2)cc1 | inconclusive [inhibitor, partial curve] | – |
| COc1cccc(/C(O)=C2\C(=O)C(=O)N(c3ccccn3)C2c2ccccc2OC)c1 (centres undefined) | inconclusive [inhibitor, single point] | – |
| O=C(CSc1nc2ccccc2c(=O)n1Cc1ccco1)Nc1cccc(O)c1 | inconclusive [inhibitor, partial curve] | – |
| CC(OC(=O)COc1ccc(Nc2ccccc2)cc1)C(=O)N(C)c1ccccc1 (centres undefined) | inconclusive [inhibitor, partial curve] | – |
| CCOc1ccc2nc(CN3CCN(Cc4ccsc4)C(CCO)C3)ccc2c1 (centres undefined) | inconclusive [inhibitor, single point] | – |
| CCN(CC)CCNC(=O)CS(=O)Cc1nc(-c2ccccc2Cl)oc1C (centres undefined) | inconclusive [inhibitor, single point] | – |
| Cc1ccc(NC(=O)CN2C(=O)N/C(=C/c3cc(C)n(-c4cccc(C(=O)O)c4)c3C)C2=O)cc1 | active: 20 µM | – |
| Cc1cc(C(=O)CCC(=O)N2CCN(c3ccccc3O)CC2)c(C)s1 | inconclusive [inhibitor, partial curve] | – |
| O=C(Nc1nc2ccccc2s1)c1cnccn1 | – | inactive: -5.71% |
| Cc1cc2nc(-c3ccc(NC(=O)c4cc5ccccc5o4)cc3)oc2cc1C | – | inactive: -1.68% |
| O=C(C1=C[C@H](c2ccc(C(F)(F)F)cc2)C[C@H](OCc2ccc(CO)cc2)O1)N1CCOCC1 | inconclusive [inhibitor, partial curve] | – |
| COCCn1c(SCC(=O)NC2CC2)nnc1-c1ccco1 | – | inactive: -2.82% |
| O=C(O)c1cccc(N/N=C/C2=C(Cl)c3cc(Cl)ccc3SC2)c1 | inconclusive [inhibitor, partial curve] | – |
| O=C(CSc1ccccc1)Nc1ccc(N2CCOCC2)c(F)c1 | – | inactive: -0.247% |
| COc1ccc(C2NC(=O)C(=O)/C2=C(\O)c2ccc(Cl)cc2)cc1OC (centres undefined) | inconclusive [inhibitor, partial curve, poor fit] | – |
| COc1ccccc1OCc1nc(C#N)c(NCCCn2ccnc2)o1 | active: 44.7 µM | – |
| CC(=O)c1ccc(OC(C)C)c(CN2CCCCC2)c1 | inconclusive [inhibitor, partial curve] | – |
| COc1ccc(CCn2c3c(c(=O)[nH]c2=O)C(NC(=O)c2ccc(C(C)(C)C)cc2)(C(F)(F)F)C(=O)N3)cc1OC (centres undefined) | inconclusive [inhibitor, partial curve, poor fit] | – |
| CCOC(=O)NC1(C(F)(F)F)C(=O)N(Cc2ccccn2)C2=C1C(=O)CC(C)(C)C2 (centres undefined) | inconclusive [inhibitor, single point] | – |
| CN(C)CCNc1oc(-c2ccc(COc3ccc(Cl)cc3)o2)nc1C#N | inconclusive [inhibitor, single point] | – |
| C=CCN1C(=O)CN=C1Nc1ccccc1 | inconclusive [inhibitor, partial curve, poor fit] | – |

| SMILES | Potency | activity change, negative = inhibition |
| --- | --- | --- |
| COc1ccc(N2C(=O)CC(Nc3cccc([N+](=O)[O-])c3)C2=O)cc1 (centres undefined) | inconclusive [inhibitor, single point] | – |
| Cc1cc(Nc2cccc(Cl)c2)nc2ccc(NC(=O)c3cncc(Br)c3)cc12 | inconclusive [inhibitor, single point] | – |
| CN1CCN(S(=O)(=O)c2ccc3c(c2)NC(=O)C2CCCN32)CC1 (centres undefined) | inconclusive [inhibitor, partial curve] | – |
| COc1ccc(C(NC(=O)/C=C/c2ccco2)c2ccc(OC)c(OC)c2)cc1OC | active: 8.91 µM | – |
| COC(=O)C(C)Oc1ccc2c(c1)O/C(=C\c1ccco1)C2=O (centres undefined) | active: 20 µM | – |
| CC1(C)COC(c2coc3ccccc3c2=O)OC1 | inconclusive [inhibitor, single point] | – |
| COC(=O)c1cccc(S(=O)(=O)N(Cc2ccco2)Cc2cc3cc(OC)ccc3[nH]c2=O)c1 | active: 28.2 µM | – |
| CN(C)CCCN1C(=O)c2oc3ccc(Cl)cc3c(=O)c2C1c1cccnc1 (centres undefined) | – | inactive: 2.97% |
| O=C(Nc1cccc(C(F)(F)F)c1)c1cnn(-c2cccc(F)c2)c1C1CCNCC1 | – | inactive: 8.69% |
| Cc1ccc(/C=C/C(=O)O)cc1S(=O)(=O)NCCCC(=O)O | inconclusive [inhibitor, partial curve] | – |
| COCC(C)NC(=O)CCS(=O)(=O)c1nc(-c2ccc(OC)cc2)cc(C(F)(F)F)n1 (centres undefined) | inconclusive [inhibitor, full curve] | – |
| C=CCOC(=O)C1=C(C)NC(C)=C(C(=O)OCC=C)C1c1ccc(C)o1 | active: 15.8 µM | – |
| O=C(CC(Cc1ccccc1)c1ccco1)NCc1ccco1 (centres undefined) | inconclusive [inhibitor, partial curve] | – |
| O=C(NC1CCCC1)c1n[nH]c2ccccc12 | – | inactive: -1.69% |
| CCC(=O)N1CCN(c2ccc(NC(=S)NC(=O)c3cccc([N+](=O)[O-])c3)cc2)CC1 | active: 10 µM | – |
| CCCCN(C)CCCNC(=O)c1cc(-c2cccs2)nc2ccccc12 | inconclusive [inhibitor, single point] | – |
| COc1cc(CNCc2ccco2)cc(OC)c1O | active: 15.8 µM | – |
| O=C(O)C(O)c1ccco1 (centres undefined) | inconclusive [inhibitor, partial curve] | – |
| Cc1ccnc(NC(=O)c2ccc(C(=O)c3ccccc3)cc2)c1 | – | inactive: 8.73% |
| CCOC(=O)C1CCN(Cc2ccc(O)c3ncccc23)CC1 | active: 2.82 µM | – |
| CCN=c1scc(C)n1/N=C/c1ccc(O)c(O)c1O | active: 20 µM | – |
| O=C1CCCC/C1=C\Nc1ccc(Cl)cn1 | inconclusive [inhibitor, full curve] | – |
| COc1ccc(N2CCN(C(=O)c3cccc(S(=O)(=O)N4CCOCC4)c3)CC2)cc1 | inconclusive [inhibitor, partial curve] | – |

| SMILES | Potency | activity change, negative = inhibition |
| --- | --- | --- |
| CC(C)C(=O)NC(=S)Nc1ccc(S(=O)(=O)NC2CCCCC2)cc1 | inconclusive [inhibitor, partial curve] | – |
| CCOC(=O)[C@H]1[C@H]2COc3ccc(C)cc3[C@@H]2N2C(=O)CN(Cc3ccco3)C(=O)[C@@]12C | active: 14.1 µM | – |
| COc1ccc(NC(=O)CN2CCN(CC#N)CC2)cc1 | – | inactive: -7.67% |
| C=CCc1ccc(OCCCNCc2ccccc2)c(OC)c1 | inconclusive [inhibitor, single point] | – |
| O=C(NCCCc1ccccc1)c1cncc(Br)c1 | – | inactive: 11.7% |
| O=C(C1=C[C@@H](c2ccc(C(F)(F)F)cc2)C[C@@H](OCCCCO)O1)N1CCN(Cc2ccc3c(c2)OCO3)CC1 | inconclusive [inhibitor, full curve, poor fit] | – |
| O=C(NCc1ccccc1)C1=C[C@H](c2ccc3c(c2)OCO3)C[C@H](OCCCCO)O1 | inconclusive [inhibitor, partial curve] | – |
| Cc1ccc(C)c(N2CCN(S(=O)(=O)c3ccc4c(c3)C(C(C)C)C(=O)N4)CC2)c1 (centres undefined) | – | inactive: 7.18% |
| COc1cccc(CN2CCNC(=O)C2CC(=O)NCCN2CCCCC2=O)c1 (centres undefined) | inconclusive [inhibitor, partial curve] | – |
| CN1CCN(C(=O)C2CCN(c3ncc(C(F)(F)F)cc3Cl)CC2)CC1 | – | inactive: 1.26% |
| COc1ccc(OCc2ccc(-c3nc(C#N)c(NC(C)c4ccccc4)o3)o2)cc1 (centres undefined) | – | inactive: 5.61% |
| CC(c1ccco1)N(C(=O)c1ccccc1NS(=O)(=O)c1ccc(Cl)c([N+](=O)[O-])c1)c1ccccn1 (centres undefined) | inconclusive [inhibitor, partial curve] | – |
| O=c1[nH]c(=S)n(Cc2ccco2)c(O)c1C=NCc1cccs1 | inconclusive [inhibitor, full curve] | – |
| Clc1ccc(/C=N\Nc2ccccc2)cc1 | inconclusive [inhibitor, partial curve] | – |
| O=c1c2ccccc2nc2n1CCS2(=O)=O | active: 22.4 µM | – |
| N#C/C(=C\c1ccc2c(c1)OCCO2)C(=O)Nc1ccc(C(=O)O)cc1 | inconclusive [inhibitor, single point] | – |
| O=C(c1cc2ccccc2oc1=O)N(Cc1ccc2c(c1)OCO2)Cc1ccco1 | inconclusive [inhibitor, partial curve, poor fit] | – |
| CC(=O)N=c1c(C#N)cc2c(=O)n3ccccc3nc2n1CCCOC(C)C | – | inactive: -2.43% |
| CCCc1ccc(O)c(N=Cc2cc(Br)cc(OCC)c2O)c1 | inconclusive [inhibitor, full curve] | – |
| CCOc1ccccc1-n1c(SCC(=O)NC)nnc1-c1ccco1 | inconclusive [inhibitor, single point] | – |
| C#CCOCCOCCOCCNc1nc(N2CCN(C(=O)CCCCCCCCCCNC(=O)[C@@H](CCC(=O)O)n3cc(CCCCCN)nn3)CC2)nc(N2CCN(C(=O)CCCCCCCCCCNC(=O)[C@H](CO)n3cc(CCCCCN)nn3)CC2)n1 | inconclusive [inhibitor, partial curve] | – |
| CCC1CCCCN1S(=O)(=O)c1ccc(NC(=O)c2nc(S(C)(=O)=O)ncc2Cl)cc1 (centres undefined) | active: 2 µM | – |
| Cn1cccc1C1C(C#N)=C(N)OC2=C1C(=O)CCC2 (centres undefined) | inconclusive [inhibitor, partial curve] | – |
